About 5,800 (2.1%) of roughly 270,000 compounds were called active. The shares of active, inactive and inconclusive entries below differ from those in the screen. Calls come from the whole dose curve; as a rule, active = well fitted inhibition curve with a large enough effect; inconclusive = small, poorly fitted or top-dose-only effect; inactive = flat fitted curve, though single readings scatter. Potencies beside an inconclusive call are fits to weak or partial responses and may not hold up.
target: Microtubule-associated protein tau (Homo sapiens) (UniProt P10636); test: qHTS for Inhibitors of Tau Fibril Formation, Thioflavin T Binding; details: recombinant tau K18 P301L, heparin-induced fibrillization, ThT fluorescence; series mostly up to 57.4 µM; note: nearly all actives have a fitted effect of over 55% in size
In short: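 ThT emission at 510 nm, taken 1 hr after adding 30 uM dye, quantifies aggregates formed when 20 uM heparin acts on human tau K18 P301L for 6 hr at 37 C.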
Potency is the fitted concentration of half-maximal effect; tags give direction and shape of the fitted curve.

Sequence of UniProt P10636 (P10636 whole entry, looked up): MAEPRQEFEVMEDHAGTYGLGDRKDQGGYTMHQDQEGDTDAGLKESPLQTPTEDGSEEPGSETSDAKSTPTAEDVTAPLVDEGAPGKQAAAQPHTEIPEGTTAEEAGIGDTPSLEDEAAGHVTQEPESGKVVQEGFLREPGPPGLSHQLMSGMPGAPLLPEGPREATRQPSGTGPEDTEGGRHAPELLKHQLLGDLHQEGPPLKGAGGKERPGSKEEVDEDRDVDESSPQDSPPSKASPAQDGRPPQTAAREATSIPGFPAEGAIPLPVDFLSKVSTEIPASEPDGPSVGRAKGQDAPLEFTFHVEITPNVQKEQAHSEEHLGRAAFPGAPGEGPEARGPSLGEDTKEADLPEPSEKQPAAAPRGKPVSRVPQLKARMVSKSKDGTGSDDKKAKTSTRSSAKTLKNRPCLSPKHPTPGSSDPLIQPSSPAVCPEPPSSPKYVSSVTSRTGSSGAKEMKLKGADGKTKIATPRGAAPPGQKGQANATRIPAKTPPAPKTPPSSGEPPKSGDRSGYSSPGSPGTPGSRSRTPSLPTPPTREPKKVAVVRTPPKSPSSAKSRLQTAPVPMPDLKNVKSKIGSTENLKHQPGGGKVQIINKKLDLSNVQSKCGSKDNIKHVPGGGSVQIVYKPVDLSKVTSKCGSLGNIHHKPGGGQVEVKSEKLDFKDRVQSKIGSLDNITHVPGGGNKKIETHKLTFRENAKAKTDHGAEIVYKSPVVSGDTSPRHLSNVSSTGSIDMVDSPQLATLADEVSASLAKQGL

Row | Structure (SMILES) | Potency
1 | COc1ccc(NC(=O)CSCc2cc(=O)c3cc(C)ccc3[nH]2)cc1 | inactive
2 | Cc1ccc(C)n1CCN1CCN(S(=O)(=O)c2ccc(F)cc2F)CC1 | inconclusive: 31.6 µM [inhibitor, single point]
3 | Cc1ccc(NC(=O)c2ccc(NCCN)c([N+](=O)[O-])c2)cc1 | active: 14.1 µM
4 | Cc1ccc(CNC(=O)CSCc2ccccc2C)cc1 | inactive
5 | C#CCCCCCCCCCCCC(O)CC(O)COC(C)=O (centres undefined) | inconclusive: 39.8 µM [inhibitor, single point]
6 | CCN(CC)c1nc(-c2ccccc2)ncc1S(=O)(=O)c1ccc(C)cc1 | inactive
7 | CCC(Sc1nc2nccnc2c(=O)n1Cc1ccccc1Cl)C(=O)NC1CCCCC1 (centres undefined) | inactive
8 | O=C1/C(=C/c2ccc(F)cc2)SC(=S)N1N1CCOCC1 | inactive
9 | CCOC(=O)C1CCCN(C2CC(=O)N(c3cccc(C(F)(F)F)c3)C2=O)C1 (centres undefined) | inactive
10 | CCC(C(=O)O)N1C(=O)/C(=C/c2cccn2C)SC1=S (centres undefined) | active: 12.6 µM
11 | CCN(CC)c1ccc(C2C(C(=O)OC)=C(C)NC(C)=C2C(=O)OC)cc1 | inactive
12 | COc1ccc(C(=O)Nc2ccc(-c3nc4ncccc4o3)cc2C)cc1Br | inconclusive: 1.58 µM [inhibitor, full curve, poor fit]
13 | COc1ccc(NC(=O)c2c(NCc3ccc(C)o3)sc3c2CCCCC3)c(OC)c1 | active: 17.8 µM
14 | COc1cccc(/C=N/NC(=S)Nc2cccc(C(=O)O)c2)c1O | inconclusive: 22.4 µM [inhibitor, partial curve]
15 | Cc1ccc(C(=O)Oc2oc(-c3ccccc3)nc2C=Nc2ccc(N(C)C)cc2)cc1 | inconclusive: 3.98 µM [inhibitor, single point]
16 | O=C(c1[nH]ncc1-c1ccc(Cl)cc1)C1CO1 (centres undefined) | inconclusive: 39.8 µM [inhibitor, single point]
17 | Cc1ccccc1-n1nnnc1SCC(C)C | inactive
18 | COc1cc2c(cc1OC)C(COc1ccc3c(C)cc(=O)oc3c1)N(C(=O)Cc1ccc(F)cc1)CC2 (centres undefined) | inactive
19 | O=C1C(Cl)=C(Nc2ccc(F)cc2)C(=O)N1CCc1ccccc1 | inconclusive: 7.08 µM [inhibitor, full curve, poor fit]
20 | O=C(NN=C1CCCCCC1)c1ccc2c(c1)OCO2 | inconclusive: 5.62 µM [inhibitor, full curve]
21 | Cc1cc(C)cc(-n2ccn(CC(=O)NCCc3ccccc3)c(=O)c2=O)c1 | inconclusive: 17.8 µM [inhibitor, single point]
22 | COc1cccc(/C=N/Nc2ncnc3scc(-c4ccccc4)c23)c1OC | inconclusive: 28.2 µM [inhibitor, partial curve]
23 | COc1ccc(NC(=O)CC2Oc3ccc(C)cc3NC2=O)cc1Cl (centres undefined) | inconclusive: 39.8 µM [activator, single point]
24 | O=C(O)c1ccc2c3c(cccc13)C(=O)N(OS(=O)(=O)c1ccccc1)C2=O | inconclusive: 14.1 µM [inhibitor, partial curve]
25 | CCCOC(=O)c1ccc(OCC(O)Cn2c(C)nc3ccccc32)cc1 (centres undefined) | inconclusive: 12.6 µM [inhibitor, partial curve]

Row | Structure (SMILES) | Potency
26 | Cc1cccc(CSCCNC(=O)C2CCN(S(=O)(=O)Cc3ccccc3)CC2)c1 | inconclusive: 25.1 µM [inhibitor, partial curve]
27 | CCC(CC)C(=O)Nc1nnc(S(=O)(=O)N(C)c2cc(C)cc(C)c2)s1 | inactive
28 | CCCc1[nH]nc2c1C(CCc1ccccc1)C(C#N)=C(N)O2 (centres undefined) | inconclusive: 20 µM [inhibitor, partial curve]
29 | CCNC(=S)Nc1ccc(C)c(S(=O)(=O)Nc2ccccc2OC)c1 | inactive
30 | Cc1ccc(-c2csc(-c3c(N)c(C(=O)c4ccc5c(c4)OCO5)n4ccccc34)n2)cc1C | inconclusive: 1.58 µM [inhibitor, partial curve]
31 | CN(C)c1nc(-c2ccc([N+](=O)[O-])cc2)cs1 | active: 12.6 µM
32 | COc1ccc(-c2nc(Cn3c(SCc4ccc(C)cc4)nc4ccncc43)c(C)o2)cc1OC | inconclusive: 14.1 µM [inhibitor, partial curve]
33 | O=C(O)c1nn(CCOc2cccc(Cl)c2)c(=O)c2ccccc12 | inconclusive: 28.2 µM [inhibitor, single point]
34 | Cc1cccc(NC(=S)NN(Cc2ccccc2)c2ccccc2)c1C | inactive
35 | CCN1CCN(c2nc(C)nc3c2sc(=S)n3C)CC1 | inconclusive: 25.1 µM [inhibitor, single point]
36 | Cc1ncc(N=Nc2ccccc2Cl)c(-c2ccccc2)n1 | inconclusive: 14.1 µM [inhibitor, partial curve]
37 | CCOC(=O)C(NC(=O)CC(C)C)(Nc1sc2c(c1C(N)=O)CCCC2)C(F)(F)F (centres undefined) | inconclusive: 12.6 µM [inhibitor, single point]
38 | CC(=O)c1sc(Nc2nc3cc4c(cc3s2)OCO4)nc1C | active: 3.16 µM
39 | O=[N+]([O-])c1cc(C(F)(F)F)ccc1NN=C1CCCC1 | inconclusive: 31.6 µM [inhibitor, single point]
40 | Cc1sc2ncnc(N3CCN(CCOc4ccc(Cl)cc4)CC3)c2c1C | inconclusive: 15.8 µM [inhibitor, partial curve]
41 | Cc1c(Cl)cccc1NC(=O)c1oc2ccc(S(=O)(=O)N3CCCCCC3)cc2c1C | inactive
42 | S=c1[nH]nc(Cn2nnc3ccccc32)n1-c1ccccc1 | inactive
43 | Cn1c(=S)[nH]c2cccnc21 | inactive
44 | COC(=O)c1sccc1NC(=O)Cc1ccc(OC)cc1 | inactive
45 | Cc1ccccc1-c1nn(-c2ccc(F)cc2F)cc1CNC1CC1 | inactive
46 | CCOC(=O)c1c(NC(C)=O)c2c3c(sc2n1Cc1c(C)cc(C)cc1C)CCCC3 | inactive
47 | Cc1ccccc1NC(=O)NCCc1c[nH]c2ccccc12 | inconclusive: 28.2 µM [inhibitor, single point]
48 | Cc1ccc(C2(C)NC(=O)N(CC(=O)Nc3ccc4[nH]c(=O)[nH]c4c3)C2=O)cc1 (centres undefined) | inconclusive: 39.8 µM [inhibitor, single point]
49 | CCOc1cc(/C=N/NC(=O)c2nn(C)cc2Br)ccc1OCc1ccccc1Cl | inconclusive: 8.91 µM [inhibitor, partial curve]
50 | c1ccc2oc(SCc3cn4ccccc4n3)nc2c1 | inconclusive: 22.4 µM [inhibitor, single point]

Row | Structure (SMILES) | Potency
51 | COc1cccc(CN2C(=O)c3ccccc3Sc3ccc(C(=O)NCc4ccccc4)cc32)c1 | inactive
52 | O=C(CSc1ccc(Cl)cc1)Nc1ccc(N2CCN(C(=O)c3ccco3)CC2)cc1 | inconclusive: 0.708 µM [inhibitor, full curve]
53 | Cc1ccc(NC(=O)c2ccc(NC(=O)N3CCSc4ncccc43)cc2)c(Cl)c1 | inactive
54 | O=C1C(N2CCOCC2)=C(n2nnc3ccccc32)C(=O)c2ccccc21 | active: 12.6 µM
55 | Cc1ccc(S(=O)(=O)NC2OC(=O)C(Cl)=C2Cl)cc1 (centres undefined) | active: 28.2 µM
56 | CCN(CC)c1cc(C)c2cc(NC(=O)c3ccc(OC)c(OC)c3)ccc2n1 | inconclusive: 2.82 µM [inhibitor, full curve]
57 | COc1cc(NC2c3ncccc3C(=O)N2Cc2ccco2)cc(OC)c1OC (centres undefined) | inactive
58 | O=C(Nc1ccc(Cl)cc1)c1cnn2c1NC(c1ccccc1)=CC2c1ccccc1 (centres undefined) | inconclusive: 5.01 µM [inhibitor, partial curve]
59 | N#Cc1cc2cc3ccccc3nc2n2c(=O)c3ccccc3nc12 | inconclusive: 3.55 µM [inhibitor, full curve]
60 | Oc1c(N=NC(=S)Nc2ccccc2F)c2ccccc2n1Cc1ccc(Cl)cc1 | inconclusive: 3.98 µM [inhibitor, full curve]
61 | Cc1cccc(C2c3[nH]c4ccccc4c3CCN2C(=O)c2nn(C)c(=O)c3ccccc23)n1 (centres undefined) | inactive
62 | Cc1ccc(CNC(=O)CCS(=O)(=O)c2cc3c4c(c2)CCN4C(=O)CC3)cc1 | inactive
63 | CC(=O)O[C@H]1C(=O)[C@@]2(C)C([C@H](OC(=O)c3ccccc3)[C@]3(O)C[C@H](OC(=O)[C@H](O)[C@@H](NC(=O)c4ccccc4)c4ccccc4)C(C)=C1C3(C)C)[C@]1(OC(C)=O)CO[C@@H]1C[C@@H]2O (some centres undefined) | inactive
64 | Cc1c(Cl)cccc1-n1ncc(C(=O)NCCN2CCN(C)CC2)c1C1CCN(C(=O)OC(C)(C)C)CC1 | inactive
65 | COc1ccc(C(=O)CC(=O)c2ccc(C(C)(C)C)cc2)cc1 | inactive
66 | C/C(=N\NC(=O)CSc1nc2ccccc2s1)c1cccnc1 | inconclusive: 0.316 µM [inhibitor, full curve, poor fit]
67 | COc1ccc(CNC(=O)COC(=O)CC2CCCC2)cc1 | inactive
68 | Cc1ccsc1/C=N/NC(=O)c1ccc(-n2cccc2)cc1 | inconclusive: 0.126 µM [inhibitor, full curve]
69 | Cc1ccc(OCC(=O)N/N=C2\CCOc3c(C)cccc32)cc1 | inconclusive: 2.24 µM [inhibitor, full curve]
70 | COc1ccc(OC)c(NC(=O)c2c(NCc3cccs3)sc3c2CCCCC3)c1 | inconclusive: 17.8 µM [inhibitor, partial curve]
71 | CCN(CC)c1ccc(NC(=O)c2c(C)nn(-c3ccc(F)cc3)c2-n2cccc2)c(C)c1 | inconclusive: 31.6 µM [inhibitor, single point]
72 | O=C(CSc1nnc(-c2ccccn2)n1Cc1ccco1)c1ccc(-c2ccccc2)cc1 | inactive
73 | COc1cc(OC)cc(C(=O)NC(=S)Nc2ccc(Cl)c(C(=O)O)c2)c1 | inactive
74 | O=c1c2ccccc2nc2n1C1(CCCCC1)Cc1ccccc1-2 | inconclusive: 20 µM [inhibitor, single point]

From PubChem BioAssay AID1460 (National Center for Advancing Translational Sciences (NCATS), 2008)
